Results as given in the RNAGym collection of RNA variant scans (doi:10.7554/elife.90254).
The source gives no read counts; variants with many changes may rest on few reads.

B1: LINE1-full (parent)
chain: UACGUAGGUGGUUUUCCCCUGAUAGUGCUAAGGGGGCCUGGAAGUUUGGACUGGGCAGAGCUCAACACAGCGUGGCAAAGUGGCUGUGGCUAGACUGCCUCUCUGGAUUCCUCGUCACUCAGCAGGGCAUCUCUGAGAGAAAUGCC

Variants of: B1
Test: self-cleavage, relative activity (ratio to wild type); higher = more cleavage; in vitro, sequencing; the parent is a self-cleaving ribozyme

Variant | self-cleavage
UACGUAGGUGGUUUUCCCCUGAUAGUGCUAAGGGGGCCUGGAGGUUCGGACUGGGCAGAGCUCAACACAGCGUGGCAAAGUGGCUGUGGCUAGACUGCCUCUCUGGACUCCUCGUCACUCAGCAGGGCAUCUCUGAGAGAAAUGCC [A43G U47C U108C] | 0
UACGUAGGUGGUUUUCCCCUGAUAGUGCUAAGGGGGCCUGGAAGUUUGGACUGGGCAGAGCUCAACACAGCGGAGCAAAGUGGCUGUGGCUAGACUGCCUCUCUGGAUUCCUCGUCACUCAGCAGGGCAUCUCCGAGAGAAAUGCC [U73G G74A U134C] | 1.31
UACGUGGGUGGUUUUCCCCUGAUAGUGCUAAGGGGGCCUGGAAGUUUGGACUGGGCAGAGCUCAACACAGCGUGGCAAAGUGGCUGUGGCUAGACUGCCUCUCUGGAUCCCUCGUCACUCAGCAGGGCAUCUCUGAGAGAAGUGCC [A6G U109C A142G] | 0.66
UGCGUAGGUGGUUAUCCCCUGAUAGUGCUAAGGGGGCCUGGAAGUUUGGACUGGGCAGAGCCCAACACAGCGUGGCAAAGUGGCUGUGGCUAGACUGCCUCUCUGGAUUCCUCGUCACUCAGCAGGGCAUCUCUGAGAGAAAUGCC [A2G U14A U62C] | 0.17
UACGUAGGUGGUUUUCCCCUGAUGGUGCUAAGGGGGCCUGGAAGUUUGGACUGGGCAGAGCUCAACACAGCGUGGCAAUGUGGCUGUGGCUAGACUGCCUCUCUGGAUUCCUCAUCACUCGGCAGGGCAUCUCUGAGAGAAAUGCC [A24G A79U G114A A121G] | 1.35
UACGUAGGUGGUUUUCCCCUGAUAGUGCUAAGGGGGCCUGGAAGUCUGGACUGGGCAGAGCUCAACACAGCGUGGCAGAGUGGCUGUGGCUAGACUGCCUCUCUGGAUUCCUCGUCACUCAGCAGGGCAUCUCUGAGAGAACUGCC [U46C A78G A142C] | 1.97
UACGUAGGUGGUUUUCCCCUGACAGUGCUAAGGGGGCCUGGAAGUUUGGACUGGGCAGAGCUCAACACAGCGUGGCAAAGUGGCUGCGGCUAGACUGCCUCUCUGGAUUCCUCGUCACUCAGCAGGGCAUCUCUGGGAGAAAUGCC [U23C U87C A136G] | 0.44
UACGUAGGUGGUUUUCCCCUGAUAGUGCUAAGGUGGCCUGGAAGUUUGGACUGGGCAGAGCUCAACACAGCGUGGCUAAGUGGCUGCGGCUAGACUGCCUCUCUGGAUUCCUCGUCACUCAGCAGGGCAUCUCUGAGGGAAAUGCC [G34U A77U U87C A138G] | 0.06
UACGUAGGUGGUUUUCCCCUGAUAGUGCUAAGGGGGCCUGGAAGUUUGGACUGGGCAGAGCUCAACACAGCGUGGCAAAGUAGCUGUGGCUAGACUGCCUCCCUGGAUCCCUCGUCACUCAGCAGGGCAUCUCUGAGAGAAAUGCC [G82A U102C U109C] | 1.64
UACGUAGGUGGUCUUCCCCUGAUAGUGCUAAGGGGGCCUGGGAGUUUGGACUGGGCAGAGCUCAACACAGCGUGGCAAAGUGGCUGUGGCUAGACUGCCCCUCUGGAUUCCUCGUCACUCAGCAGGGCAUCUCUGAGGGAAAUGCC [U13C A42G U100C A138G] | 0.63
UACGUAGGUGGUUUUCCCCUGAUAGUGCUAAAGGGGCCUGGAAGUUUGGACUGGGCAGAGCUCUACUCAGCGUGGCAAGGUGGCUGUGGCUAGACUGCCUCUCUGGAUUCCUCGUCACUCAGCGGGGCAUCUCUGAGAGAAAUGCC [G32A A64U A67U A79G A124G] | 0.04
UACGUAGGUGGUUUUCCCCUGAUAGUGCUAAGGGGGCCUGGAAGUCUGGACUGGGCAGAGCUCAACGCAGCGUGGCAAAGUGGCAGUGGCUAGACUGCCUCUCUGGAUUCCUCGUCACACAGCAGGGCAUCUCUGAGAGAAAUGCC [U46C A67G U85A U119A] | 0
UACGUAGGUGGUUUUCCCCUGAUAGUGCUAAGGGGGCCUGGAAGAUUGGACUGGGCAGAGCUCAACACAGCGUGGCAAAGUGGCUGUGGCUAGACUGCCUCUCUGGAUUCCUCGUCACUCAGCAGGGCACCUCUGAGAGGAAUGCC [U45A U130C A140G] | 1.71
UACGUAGGUGGUUUUCCCCUGAUAGUGCUAAGGGGGCCUGGAAGUUUGGACUGGGCAGAGCUCAACACAGCGUGGCAAAGUGGCUGUGGCUAGACUGCCUCUCUGGAUUCCUCGUCACACAGCAGGACACCUCUGAGGGAAAUGCC [U119A G127A U130C A138G] | 1.85
UACGUAGGUGGUUUUCCCCUGAUAGUGCUAAGGGGGCCUGGAAGUUUGGACUGGGCAGAGCUCAACACAGCGUGGCAAAGUGGCUGUGGCUAGACUGCCUCCCUGGAUUCCUCGUCACUCAGCAGGGCAUCACUGGGAGAAAUGCC [U102C U132A A136G] | 1.35
UACGUAGGUGGUUUUCCCCUGAUAGUGCUAAGGGGGCCUGGAAGUUAGGACUGGGCAGAGCACGACACAGCGUGGCAAAGUAGCUGUGGCUAGACUGCCUCUCUGGAUUCCUAGUCACUCAGCAGGGCAUCUCUGAGAGAGAUGCC [U47A U62A A64G G82A C113A A141G] | 0.07
UACGUAGGCGGUCUUCCCCUGGUAGUGCUAAGGGGGCCUUGAAGUUUGGACUGGGCAGAGCUCAACACAGCGUGGCUAAGUGGCUGUGGCUAGACUGCCUCUCUGGAUUCCUCGUCACUCAGCAGGGCAUCUCUGAGAGAAAUGCC [U9C U13C A22G G40U A77U] | 0.92
UACGUAGGUGGUUUUCCCCUGAUAGUGCUAAGGAGGCCUGGAAGUUUGGACUGGGCAGAGCUCAACUCAGCGUGGCAAAGUGGCUGUGGCUAGACUGCCUCUCUGGAUUCCUCGUCACUCGGCAGGGCAUCCCUGAGAGAAAUGCC [G34A A67U A121G U132C] | 0.57
UACGUAGGUGGUUUUCCCCUGAUAGCGCUAAGGGGGCCUGGAAGUUUGGACUGGGCAGAGCUCAACACAGCGUGGCAAAGUAGCUGUGGCUAGACUACCUCUCUGGAUUCCUCGUCACUCAGCAGGGCAUCUCUGAGAGAAAUGCC [U26C G82A G97A] | 0.06
UACGUAGGUGGUUCUCCCCUGAUAGUGCUAAGGGGGCCAGGAAGUUUGGACUGGGCAGAGCUCAACACAGCGUGGCAAAGUGGCUGUGGCCAGACUGCCACUCUGGAUUUCUCGUCACUCAGCAGGGCAUCUCUGAGAGAAAUGCC [U14C U39A U91C U100A C110U] | 0.07
